# PubChem BioAssay AID504466 (National Center for Advancing Translational Sciences (NCATS), 2011)
# The whole screen tested about 330,000 compounds, of which about 4,200 (1.3%) were called active. Inconclusive means that the source gave no clear call. Such entries were picked first, then a sample of the others. Calls come from the whole dose curve; as a rule, active = well fitted activation curve with a large enough effect; inconclusive = small, poorly fitted or top-dose-only effect; inactive = no such curve, though single readings can be large or run the other way. Where the call is inconclusive, the potency comes from a doubtful curve fit.
# Assay: qHTS screen for small molecules that induce genotoxicity in human embryonic kidney (HEK293T) cells expressing luciferase-tagged ELG1; note: nearly all actives have a fitted effect of over 60% in size; for activity change, positive = activation: % of control where 0% means no effect
# Conditions: HEK293T ELG1-luciferase reporter, luminescence, 16 h; series mostly up to 46 µM; activity change, positive = activation: at the top concentration
# Method in brief: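 DMSO vehicle served as control against compound-treated ELG1-luciferase HEK293T cells; exposure lasted 16 hr at 37 °C and 5% CO2, followed by ONE-Glo luminescence detection after 30 min.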
# Potency is the fitted concentration of half-maximal effect; tags give direction and shape of the fitted curve.
Structure (SMILES),Potency,"activity change, positive = activation"
COc1ccc2oc(C(=O)C3CC3)c(N)c2c1,"inconclusive: 16.4 µM [activator, partial curve]",–
COc1ccc(-c2nnc(-c3ccc(Br)o3)o2)cc1OC,"inconclusive: 14.6 µM [activator, single point]",–
Nc1ccc(C(=O)n2c3ccccc3c3ccccc32)cc1,"inconclusive: 32.6 µM [activator, partial curve, poor fit]",–
Cc1ccc(SCC(=O)Nc2nccs2)cc1,"inconclusive: 20.6 µM [activator, partial curve, poor fit]",–
COc1cccc(NC(=O)c2csc3c2CCCC3)c1,"inconclusive: 10.3 µM [activator, partial curve]",–
O=C(CNc1ccc(Br)cc1)c1ccc(Br)s1,"inconclusive: 20.6 µM [activator, partial curve, poor fit]",–
Cc1cc(C(=O)COC(=O)c2ccccc2O)c(C)n1Cc1cccs1,–,inactive: -10.8%
N#Cc1c2ccc([N+](=O)[O-])cc2[n+]([O-])n1-c1ccccc1,"inconclusive: 25.9 µM [activator, single point]",–
COc1ccc(CN=C2Nc3ccccc3CS2)cc1,"inconclusive: 2.59 µM [activator, full curve]",–
CC(C)(Oc1ccc(Cl)cc1)C(=O)OCC(=O)NCCc1ccccc1,–,inactive: 2.01%
COc1ccc(C(=O)Nc2ccc(C(=O)NCCc3ccccc3)cc2)cc1,–,inactive: 5.75%
Cc1cc(-c2ccc(Cl)cc2)n2nc(N)nc2n1,"inconclusive: 20.6 µM [activator, partial curve, poor fit]",–
C/C(=N\NC(=O)c1cc(C)oc1C)c1ccc(N2CCOCC2)cc1,–,inactive: 2.27%
Cc1ccc(OCn2c(=O)sc3ccccc32)cc1,active: 16.4 µM,–
O=[N+]([O-])c1ccc2nc(-c3ccccc3)n(OCc3ccc(Cl)cc3)c2c1,–,inactive: -0.0288%
CCCN1CCN(CCCNC(=O)c2cc3c(=O)n(C)c4ccccc4c3n2C)CC1,"inconclusive: 9.2 µM [activator, partial curve]",–
CC1CCCN(C(=O)c2cccc(S(=O)(=O)N3CCCc4ccccc43)c2)C1 (stereo not drawn),"inconclusive: 25.9 µM [activator, single point]",–
CC1(C)C[C@H](O)[C@]2(CO)[C@H](O)C[C@]3(C)C(=CCC4[C@@]5(C)CC[C@H](O)C(C)(C)C5CC[C@]43C)[C@@H]2C1 (stereo partly drawn),"inconclusive: 23.1 µM [activator, partial curve, poor fit]",–
Cc1cccc(-n2ncc3c(N4CCCC4)ncnc32)c1,"inconclusive: 2.06 µM [activator, partial curve]",–
O=C1c2oc3ccccc3c(=O)c2C(c2ccc(O)cc2)N1c1nccs1 (stereo not drawn),–,inactive: 6.75%
COc1ccccc1Nc1ncc(-c2cccs2)s1,"inconclusive: 3.26 µM [activator, full curve]",–
O=C(CCCc1ccccc1)Nc1ccccc1[N+](=O)[O-],"inconclusive: 18.3 µM [activator, partial curve]",–
CC(=O)c1ccc(NC(=O)C2CC(=O)N(Cc3ccccc3)C2)cc1 (stereo not drawn),active: 18.4 µM,–

Structure (SMILES),Potency,"activity change, positive = activation"
COc1ccccc1OCCSc1nnnn1-c1ccc(C)cc1,"inconclusive: 16.4 µM [activator, partial curve]",–
COCC(C)N=C1NN=C(c2cc(C)n(Cc3ccccc3Cl)c2C)CS1 (stereo not drawn),"inconclusive: 8.2 µM [activator, partial curve, poor fit]",–
CCC(=O)NCCc1nc2cc(NC(=O)c3ccc(F)cc3)ccc2n1C,active: 7.3 µM,–
CN(C)CCCNC(=O)C[C@H]1C[C@H](C(=O)N2CCOCC2)[C@@]2(CCC3CCCC3)c3[nH]c4cc(-c5ccco5)ccc4c3CCN2C1=O,"inconclusive: 23.1 µM [activator, single point]",–
Cc1ccc(/C=N/Nc2nnc(Cl)c3ccccc23)cc1,active: 2.31 µM,–
COc1cc(C(=O)Nc2cccc(C)c2C)c(Br)c(OC)c1OC,–,inactive: -6.88%
CCc1ccc([C@@H]2C[C@H]3CN(Cc4ccccc4OC)C(=O)[C@]34CCCN24)cc1,–,inactive: -3.94%
COc1ccccc1/C=N/N(C(C)=O)c1nc(-c2ccc(F)cc2)cs1,"inconclusive: 20.6 µM [activator, partial curve, poor fit]",–
COc1cc(SC)ccc1C(=O)NCCOc1ccc(F)cc1,active: 20.6 µM,–
Cc1nc2sc(-c3ccccc3)cc2c(=O)n1/N=C/N(C)C,"inconclusive: 18.3 µM [activator, partial curve]",–
COc1ccc(OCc2cc(C(=O)N(C)Cc3nnc(C)o3)no2)c(Cl)c1,"inconclusive: 20.6 µM [activator, partial curve]",–
CCN(C(=O)c1ccccc1F)c1nc(-c2ccc(OC)cc2)cs1,"inconclusive: 10.3 µM [activator, partial curve, poor fit]",–
COc1ccc(NC(=O)Nc2cc(C)ccc2F)cc1,active: 23.1 µM,–
O=C(NNC(=O)C1CCCCC1)c1ccc(Br)cc1,"inconclusive: 20.6 µM [activator, partial curve, poor fit]",–
CCCN(c1ccccc1F)S(=O)(=O)c1cc(-c2cc(C)no2)ccc1OC,–,inactive: -2.65%
COC(=O)c1ccc(NC(=O)Cn2c(-c3nonc3N)nc3ccccc32)cc1,"inconclusive: 7.3 µM [activator, partial curve]",–
O=C(CSCc1ccccc1Cl)N1CCN(c2ccccn2)CC1,"inconclusive: 29.1 µM [activator, partial curve, poor fit]",–
Cc1nn(C(C)C(=O)O)c(=O)c2c1sc1ccccc12 (stereo not drawn),"inconclusive: 20.6 µM [activator, partial curve, poor fit]",–
Cc1cc(C(=O)CSc2nc3ccccc3[nH]2)c(C)n1C,"inconclusive: 1.16 µM [activator, partial curve]",–
O=C(OCC(=O)N1CCCC1)c1ccccc1OCc1ccccc1,"inconclusive: 32.6 µM [activator, partial curve, poor fit]",–
O=c1[nH]c(CSc2ccccn2)nc2c1oc1ccccc12,"inconclusive: 0.73 µM [activator, full curve]",–
CC(=Nc1ccccc1)c1sc2ccccc2c1O,active: 2.91 µM,–
Cc1ccc(C(=O)O/N=C(\N)c2cccnc2)cc1[N+](=O)[O-],"inconclusive: 16.4 µM [activator, partial curve, poor fit]",–

Structure (SMILES),Potency,"activity change, positive = activation"
Cc1ccc(Cn2c(/C=C/c3ccco3)nc3ccccc32)cc1,"inconclusive: 20.6 µM [activator, partial curve, poor fit]",–
CCCOc1ccc(C(=O)CCC(=O)OCC(=O)Nc2cccc(S(N)(=O)=O)c2)cc1,–,inactive: 1.74%
O=c1c2c(nc3cc(-c4ccccc4)[nH]n13)CCS2,"inconclusive: 14.6 µM [activator, partial curve]",–
CC(C)(C)c1ccc(OC2=CS(=O)(=O)c3ccccc32)cc1,"inconclusive: 9.2 µM [activator, partial curve, poor fit]",–
COc1ccc(-c2cc(C(=O)Nc3cccc(O)c3)no2)cc1,"inconclusive: 4.11 µM [activator, single point]",–
CC1C(=O)N2CCCc3cc(NC(=O)c4ccccc4F)cc1c32 (stereo not drawn),"inconclusive: 29.1 µM [activator, partial curve, poor fit]",–
Cc1ccc(OCc2nc3ccccc3n2C)cc1,"inconclusive: 1.16 µM [activator, partial curve, poor fit]",–
C1=C(c2ccccc2)Nc2ccccc2N=C1c1ccccc1,–,inactive: -4.52%
O=C(OCC(=O)N1CCc2ccccc2C1)c1c(F)cccc1Cl,"inconclusive: 4.11 µM [activator, full curve]",–
Cc1ccc([C@@H]2[C@@H]3C(=O)N(C)C(=O)[C@@H]3[C@@H]3C(=O)Nc4ccccc4C(=O)N23)cc1,–,inactive: 0.251%
CCc1ccc(NSc2ccccc2[N+](=O)[O-])cc1,"inconclusive: 25.9 µM [activator, partial curve, poor fit]",–
Cc1nn(-c2ccccc2)c(Cl)c1/C=N/NC(=O)CNC(=O)c1ccccc1Cl,–,inactive: -2.51%
Cc1cc(C)cc(OCC(=O)O/N=C(\N)c2ccccn2)c1,"inconclusive: 29.1 µM [activator, single point]",–
CCOC(=O)c1c(NC(=O)COC(=O)c2ccccn2)sc2c1CCC2,"inconclusive: 14.6 µM [activator, partial curve, poor fit]",–
CCOC(=O)CCc1c(C)c2ccc(OCc3cc([N+](=O)[O-])ccc3OC)c(C)c2oc1=O,"inconclusive: 29.1 µM [activator, partial curve, poor fit]",–
COc1ccc(N=C(NN)c2ccc3ccccc3n2)cc1,"inconclusive: 6.51 µM [activator, partial curve]",–
Cc1cc(=O)[nH]c(SCC(=O)N2CCCCCC2)n1,"inconclusive: 25.9 µM [activator, partial curve, poor fit]",–
CNC(C)C#Cc1ccc2oc3cccc(OC)c3c(=O)c2c1 (stereo not drawn),"inconclusive: 20.6 µM [activator, partial curve]",–
CCC(=C(c1ccc(OC)cc1)c1ccc(OC)cc1)c1cn(CC(O)CN2CCN(C)CC2)c2ccccc12 (stereo not drawn),–,inactive: -40.1%
C/C(=N\NC(=O)C1=NNC(=O)C1C)c1cccs1 (stereo not drawn),"inconclusive: 12.6 µM [activator, partial curve, poor fit]",–
Cc1ccc(C(=O)N2CCc3ccccc32)cc1,"inconclusive: 10.3 µM [activator, partial curve, poor fit]",–
CC(=O)/C(N=Nc1ccc2c(c1)OCCO2)=C(\C)O,"inconclusive: 1.83 µM [activator, full curve]",–
